Laboratory results: article PMC4336329 (PLoS ONE, 2015)
In all, about 310,000 compounds went through this assay and about 14,000 (4.5%) showed an effect of 50% or more. The effect is printed as a negative number. The list shows a part of the results.

molecular target: human ether-à-go-go-related gene (hERG) potassium channel (human, UniProt Q12809); experiment: primary screen, population patch clamp on CHO cells stably expressing hERG
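Note: peak tail current of the secondary pulse compared with the same well before compound.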

Chain of human ether-à-go-go-related gene (hERG) potassium channel (Q12809 whole entry, looked up): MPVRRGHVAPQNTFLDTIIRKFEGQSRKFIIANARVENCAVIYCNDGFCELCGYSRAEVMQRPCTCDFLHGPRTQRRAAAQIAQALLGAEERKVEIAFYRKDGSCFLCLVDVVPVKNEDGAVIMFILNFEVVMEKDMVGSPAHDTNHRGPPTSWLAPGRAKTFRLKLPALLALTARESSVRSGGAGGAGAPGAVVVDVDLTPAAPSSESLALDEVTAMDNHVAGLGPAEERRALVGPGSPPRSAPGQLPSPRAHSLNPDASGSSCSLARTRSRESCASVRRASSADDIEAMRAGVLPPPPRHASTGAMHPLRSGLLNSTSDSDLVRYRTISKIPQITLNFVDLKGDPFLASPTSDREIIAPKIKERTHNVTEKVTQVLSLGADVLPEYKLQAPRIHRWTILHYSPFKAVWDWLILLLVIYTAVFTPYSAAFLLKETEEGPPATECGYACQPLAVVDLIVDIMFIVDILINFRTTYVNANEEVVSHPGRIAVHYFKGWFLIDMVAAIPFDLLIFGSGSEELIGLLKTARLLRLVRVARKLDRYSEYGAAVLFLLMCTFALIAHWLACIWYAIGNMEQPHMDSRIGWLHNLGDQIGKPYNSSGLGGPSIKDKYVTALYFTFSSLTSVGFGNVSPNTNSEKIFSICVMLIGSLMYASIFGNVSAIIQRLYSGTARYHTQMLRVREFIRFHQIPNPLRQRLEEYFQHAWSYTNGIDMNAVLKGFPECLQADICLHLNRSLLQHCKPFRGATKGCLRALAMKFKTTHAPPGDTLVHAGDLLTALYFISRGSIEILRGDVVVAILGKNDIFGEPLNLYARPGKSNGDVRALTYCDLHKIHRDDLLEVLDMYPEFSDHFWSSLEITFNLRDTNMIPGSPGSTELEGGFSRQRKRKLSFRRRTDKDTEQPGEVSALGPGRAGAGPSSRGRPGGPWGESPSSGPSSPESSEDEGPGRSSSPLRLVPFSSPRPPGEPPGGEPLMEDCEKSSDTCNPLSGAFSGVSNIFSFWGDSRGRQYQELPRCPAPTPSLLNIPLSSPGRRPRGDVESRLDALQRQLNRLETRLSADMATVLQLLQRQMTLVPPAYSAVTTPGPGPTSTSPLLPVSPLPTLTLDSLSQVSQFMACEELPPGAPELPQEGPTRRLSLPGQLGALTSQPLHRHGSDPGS

Compound | hERG current change (%, negative = inhibition) at 10uM [%]
CC(=O)N1CCN(S(=O)(=O)c2ccc(S(=O)(=O)NC3CC3)cc2)CC1 | -6.62
COc1ccc(C(=O)NCC(c2ccco2)N2CCc3ccccc32)cc1 (centres unmarked) | -2.29
COc1ccc(N2CS(=O)(=O)/C(=C/N(C)C)C2=O)cc1 | -5.92
CC1Cc2ccccc2N1C(=O)CSc1nc(-c2ccccc2)cs1 (centres unmarked) | 3.32
O=C(O)CSC1=NC(=Nc2ccc(Cl)cc2)C2(CCCCC2)N1c1cccc(C(=O)O)c1 | 2.7
Cc1ccc(-c2[nH]nc3c2C(c2ccsc2)C(C#N)=C(N)O3)cc1 (centres unmarked) | -18.9
O=C(CCN1CCCO1)N1CCCC(N2CCN(c3ccccc3F)CC2)C1 (centres unmarked) | 6.67
Cc1ccc(C)c(NC(=O)COC(=O)c2ccc(S(=O)(=O)N3CCCCC3)cc2)c1 | -3.34
Cc1ccc(N2CC(C(=O)OCC(=O)NNC(=O)c3ccccc3)CC2=O)cc1 (centres unmarked) | 5.66
Cc1cc(=O)[nH]c(-c2ccccc2OC(F)(F)F)n1 | 12.3
C=CCn1c(SCc2nc3ccccc3c(=O)[nH]2)nnc1-c1cc2cc(Cl)ccc2o1 | -12.3
C=CCNC(=O)c1cc(Cl)ccn1 | -5.66
O=C(NC1CCCN(Cc2ccc(Cl)cc2)C1)c1ccccc1C(F)(F)F (centres unmarked) | -16.9
COc1ccc(OCC(=O)Nc2ccccc2N2CCCCC2)cc1 | 5.52
Br.Cc1ccc2nc(-c3ccccc3)cn2c1 | -2.74
CC(C)c1ccc(NC(=O)COC(=O)c2ccc(CN3CCCC3=O)cc2)cc1 | 8.82
Cc1oc(-c2ccccc2Cl)nc1CN1CCCC1c1ccc(F)cc1 (centres unmarked) | -10.8
CCN1C(=O)C(Cc2nc3ccccc3c(=O)n2C)c2ccccc21 (centres unmarked) | -3.68
CCCCNC(=O)OC(C)CNC(=O)OC (centres unmarked) | -7.79
O=C(NCC1CCCO1)c1ccc(F)c2ccccc12 (centres unmarked) | 3.7
Cc1nc([N+](=O)[O-])c(N2CCN(Cc3ccccc3)CC2)n1Cc1ccccc1 | -64.3
CN1CCC2(CC1)N=C(c1ccc(F)cc1)C(=S)N2C(=O)c1ccc(C(C)(C)C)cc1 | -6.86
CCC(C)[C@H]1CNCCN1CCc1cccc2ccccc12 (some centres unmarked) | 7.69

Compound | hERG current change (%, negative = inhibition) at 10uM [%]
C/C(CCc1oc2ccc(Br)cc2c1-c1ccc(C)o1)=N/O | 4.5
CCN(CC(=O)NC1CCS(=O)(=O)C1)C(=O)/C=C/c1cccs1 (centres unmarked) | 61.8
COc1cccc(OCCNC(=O)c2ccc(C)cc2)c1 | 8.59
Cc1ccc(-n2c(SCC(=O)NCCC3=CCCCC3)nc3n[nH]c(C)c3c2=N)cc1Cl | -9.38
O=C(c1ccc2c(c1)N(Cc1ccccc1)CCS2)N1CCC2(CC1)OCCO2 | -56.1
COc1ccc(CC2(C)OC(c3ccc(C)cc3)=NN2C(C)=O)cc1 (centres unmarked) | 1.44
Cc1cc(C)nc(/N=C(\N)Nc2ccc(CC(=O)OC(C)C)cc2)n1 | -67.6
CCCn1nnnc1SCC(=O)N1C(C)CCCC1C (centres unmarked) | 18.9
COC(=O)CSc1nnc(CNC(=O)c2ccco2)n1-c1ccc(F)cc1 | -10.3
COc1ccc(C(=O)Nc2ccc(NC(=O)c3cccs3)cn2)cc1 | 7.25
COC(=O)CSc1ncc(S(=O)(=O)c2ccccc2)c(=O)[nH]1 | 26.4
Cc1ccc(C)c(N2CCN(c3nnnn3-c3ccccc3)CC2)c1 | 5.08
CC(OC(=O)CCCN=C1NS(=O)(=O)c2ccccc21)C(=O)c1ccccc1 (centres unmarked) | -7.8
O=C(NN=C1CCN(Cc2ccccc2)CC1)c1ccccc1O | 16
COc1ccc(C(=O)CC(c2ccccc2)C2C(=O)CCCC2=O)cc1 (centres unmarked) | 0.865
CCc1cc(C(N)=S)ccn1 | 14.7
Cc1ccc(C(=O)Nc2cc(Cl)ccc2-n2cncn2)o1 | -17.9
O=C(O)CCC(=O)Nc1ccc(Oc2ncnc3cc(Cl)ccc23)nc1 | 16.6
CCCCNC(=O)C1CCC(CNc2nc(=S)[nH]c3ccccc23)CC1 (centres unmarked) | 15.6
Cc1ccc(Cn2nnc3c(=O)[nH]c(C4CCCN(C(=O)Nc5ccc(F)cc5)C4)nc32)cc1 (centres unmarked) | -5.1
CCC(Sc1ccc(C(=O)O)cc1)C(=O)O (centres unmarked) | 14.5
CCOc1ccc(N2CC(C(=O)Nc3ccccc3OC)CC2=O)cc1 (centres unmarked) | -6.29
CC(C)(C)c1ccc(C(=O)NCc2nnc(SCC(=O)NCc3ccco3)o2)cc1 | 6.17

Compound | hERG current change (%, negative = inhibition) at 10uM [%]
Cc1c(NC(=O)c2cccnc2Cl)c(=O)n(-c2ccccc2)n1C | 10.6
NC(=O)c1ccccc1NC(=O)/C=C/c1cccc(Cl)c1 | -10.1
CCN(CC)C(=O)c1sc(NC(=O)c2ccc3c(c2)OCO3)c(C(N)=O)c1C | -1.11
CN(CCNC(=O)C1CCC(=O)N(Cc2ccc(Cl)cc2)C1)CCc1ccccc1 (centres unmarked) | -72.6
CCOC(=O)c1c(C)[nH]c(C(=O)NNC(=O)c2ccc(Br)cc2)c1C | -17.8
O=C1CCCC2=C1C(c1ccc(O)c(O)c1)Nc1ccc3ncccc3c12 (centres unmarked) | 16
CCCc1cc(-c2ccc(O)c(OCC)c2)c(C#N)c(N)n1 | 3.84
CCc1cccc(C)c1NC(=O)COC(=O)c1cc([N+](=O)[O-])ccc1N1CCOCC1 | 15
CC1(C)CC(C)(c2ccc(O)cc2O)N(c2cccc(Cl)c2)C(=S)N1 (centres unmarked) | 2.04
Cc1ccc([C@@H]2C3COCC=C3C(C#N)=C(N)C2(C#N)C#N)o1 (some centres unmarked) | -9.59
CCCCCC(=O)Nc1cccc(C2=NOC3(C2)C[C@H](C(N)=O)N(C(=O)c2ccccc2C(=O)c2ccccc2)C3)c1 (some centres unmarked) | -1.69
O=C(CSc1nnc(Cn2c(=O)sc3ccccc32)n1-c1ccccc1)N1CCOCC1 | -5.2
O=C(NN=C1CCN(Cc2ccccc2)CC1)c1cc(Br)ccc1O | -4.59
O=C(O)C1CSC(c2ccco2)N1 (centres unmarked) | 5.11
COc1ccc(OCc2nnnn2-c2ccccc2)cc1 | 0.624
COc1ccc(CNC(=O)c2csc3c2CCCC3)cc1 | -0.424
CCc1nc2ccccc2n1CC(=O)N1CCN(Cc2ccccc2)CC1 | -61.5
CN(C)C(=O)N1CCCC(C(=O)NCc2cccs2)C1 (centres unmarked) | 1.62
CCOC(=O)c1cnc(-n2[nH]c(C)cc2=O)[nH]c1=O | 5.83
CCOC(=O)N1CCC(NC(=O)CC2C(=O)NCCN2Cc2ccccc2F)CC1 (centres unmarked) | 11.8
COc1ccccc1NC(=O)N(Cc1cccs1)Cc1cc2cc3c(cc2[nH]c1=O)OCO3 | -5.32
Cc1ccc(-c2ccc(=O)n(Cc3c(F)cccc3Cl)n2)cc1 | 9.18
COc1ccc2[nH]c3c(c2c1)CCN1C(=O)N([C@@H](C)C(=O)NC2CCCCC2C)C(=O)[C@]31C (some centres unmarked) | -6.9

Compound | hERG current change (%, negative = inhibition) at 10uM [%]
Cc1ccc(N(CC(=O)NC(C)(C)C)C(=O)CS(=O)CC(=O)Nc2ccc(F)cc2)cc1 (centres unmarked) | 20
O=C1CCc2cc(S(=O)(=O)Nc3ccccc3F)cc3c2N1CCC3 | -17.9
Cc1c(C(=O)N2CC(C)OC(C)C2)[nH]c2ccc(Br)cc12 (centres unmarked) | -9.46
CCCC(C)NS(=O)(=O)c1ccccc1 (centres unmarked) | -18.4
Cc1ccc(C)c(N/N=C2\CCCNC2=O)c1 | -25.2
CCOC(=O)c1sc(=NC(=O)c2ccccc2Br)n(C)c1C | -6.52
CC1(C)Cc2c(sc3c2C(=O)N(c2ccccc2)C2=NCCCN23)CO1 | 3.7
O=C(Nc1ccc2oc(-c3cccnc3)nc2c1)c1cc2ccccc2o1 | 6.16
COc1ccc(-c2[nH]ncc2CN2CCC(N3CCSCC3)CC2)c(F)c1 | 1.98
O=C(OCc1ccc(Br)cc1)c1ccncc1 | 5.25
O=C(O)c1cccc(NC(=S)N/N=C/c2c[nH]c3ccccc23)c1 | 18
COc1ccc(C(=O)NC(=S)NC(C)C)cc1Br | 12.9
NC(=O)C1CCN(CC(O)CSc2ccc(F)cc2)CC1 (centres unmarked) | 0.126
C#CCOCCOCCOCCNc1nc(N2CCN(C(=O)[C@H]([C@@H](C)CC)n3cc([C@@H](N)CC(C)C)nn3)CC2)nc(N2CCN(C(=O)[C@H](Cc3ccc(O)cc3)n3cc([C@@H](N)C(C)CC)nn3)CC2)n1.Cl (some centres unmarked) | 2.94
CCN(CC)c1ccc(S(=O)(=O)N2CCOCC2)cc1NC(=O)CN1C(=O)NC2(CCCC2)C1=O | -26.3
Cc1[nH]nc2c1C(c1ccccn1)N(c1ccc(Br)cc1)C2=O (centres unmarked) | -23.4
Cc1cccc(OCCCCCn2ccnc2)c1 | -21.7
CCOc1ccc(-c2nc3n(c(=O)c2C#N)CCS3)cc1 | 11.8
Cc1cccc(NC(=O)C(C)SCc2nc3sc4c(c3c(=O)[nH]2)CCCC4)n1 (centres unmarked) | -6.66
CN(C)/C=C1\C(=O)NN=C1C(F)(F)F | 4.44
